# Assay results from PubChem BioAssay AID588579 (National Center for Advancing Translational Sciences (NCATS), 2011).
# Values joined by “and” are separate entries in the source; they are usually repeats but may differ in a detail not shown here. Equal entries are not always repeated. In all, about 400,000 compounds went through this assay and about 2,200 (0.55%) were called active. Inconclusive results, whose numbers are uncertain, are shown with a selection of clear calls. The call rests on the fitted dose curve; in most records, active means well fitted inhibition curve with a large enough effect; inconclusive means small, poorly fitted or top-dose-only effect, or another doubt; inactive means no such curve, though single readings can be large or run the other way. Where the call is inconclusive, the potency comes from a doubtful curve fit.
# Biological target: DNA polymerase kappa (Homo sapiens) (UniProt Q9UBT6)
# Sequence of UniProt Q9UBT6 (Q9UBT6 whole entry, looked up): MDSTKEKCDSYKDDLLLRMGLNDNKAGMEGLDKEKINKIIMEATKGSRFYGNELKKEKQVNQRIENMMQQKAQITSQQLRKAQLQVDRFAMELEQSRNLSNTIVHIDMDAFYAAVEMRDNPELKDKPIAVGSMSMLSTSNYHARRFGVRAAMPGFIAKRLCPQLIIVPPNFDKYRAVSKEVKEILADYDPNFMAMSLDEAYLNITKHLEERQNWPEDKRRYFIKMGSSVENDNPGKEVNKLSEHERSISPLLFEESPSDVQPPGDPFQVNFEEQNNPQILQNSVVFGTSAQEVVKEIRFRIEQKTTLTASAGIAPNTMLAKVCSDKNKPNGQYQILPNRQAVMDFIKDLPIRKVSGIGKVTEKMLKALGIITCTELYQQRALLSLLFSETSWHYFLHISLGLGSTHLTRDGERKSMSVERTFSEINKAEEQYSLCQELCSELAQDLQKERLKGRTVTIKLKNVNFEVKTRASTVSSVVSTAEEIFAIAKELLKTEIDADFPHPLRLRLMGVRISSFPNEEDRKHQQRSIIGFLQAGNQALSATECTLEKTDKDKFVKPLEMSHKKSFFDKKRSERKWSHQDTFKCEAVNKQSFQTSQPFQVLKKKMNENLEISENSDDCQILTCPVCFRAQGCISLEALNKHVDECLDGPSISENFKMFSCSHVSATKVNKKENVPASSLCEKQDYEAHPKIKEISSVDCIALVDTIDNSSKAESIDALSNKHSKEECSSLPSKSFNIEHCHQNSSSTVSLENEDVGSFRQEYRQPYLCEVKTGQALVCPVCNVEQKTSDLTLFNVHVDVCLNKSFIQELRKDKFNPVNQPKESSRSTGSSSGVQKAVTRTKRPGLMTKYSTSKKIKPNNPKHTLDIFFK
# Assay: qHTS for Inhibitors of Polymerase Kappa
# Details: purified Pol kappa, fluorescent DNA synthesis assay, 10 min; series mostly up to 107 µM
# Outline: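 Enzyme at 10 nM met test compounds for 15 min at room temperature. Substrate addition (50 nM final) began the reaction, which was monitored by fluorescence at 0 and 10 min.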
# Potency means the concentration at half of the fitted maximal effect; tags describe the fitted curve by direction and shape.
row,Compound,Potency
1,CCOc1ccc(C(=O)NCc2ccco2)cc1,"inconclusive: 100 µM [inhibitor, single point]"
2,O=C(CN1C(=O)c2ccccc2S1(=O)=O)Nc1ncc(Cl)cc1Cl,"inconclusive: 89.1 µM [inhibitor, single point]"
3,Cc1ccc(S(=O)(=O)N(C)c2ccccc2C(=O)Nc2ccc(F)cc2F)cc1,inactive
4,Cc1ccc(-c2cc3ncc4c(n3n2)-c2cc(Cl)ccc2OC4)cc1,inactive
5,O=C(CN1C(=O)/C(=C2\SC(=S)N(CCS(=O)(=O)O)C2=O)c2ccccc21)Nc1cccc(Br)c1,"inconclusive: 100 µM [inhibitor, partial curve, poor fit]"
6,CC(C)(C)c1ccc(C(=O)C[N+]2(C)CCCc3ccccc32)cc1 (stereo unspecified),"inconclusive: 56.2 µM [inhibitor, partial curve, poor fit]"
7,CCOc1cc(/C=C2\N=C(SCC)SC2=O)cc([N+](=O)[O-])c1OC(C)=O,"inconclusive: 89.1 µM [inhibitor, single point]"
8,CCSc1nnc(NC(=O)/C=C/c2ccco2)s1,"inconclusive: 89.1 µM [inhibitor, partial curve, poor fit]"
9,CS(=O)(=O)N(Cc1ccccc1)c1ccc(C(=O)Nc2ccc(Cl)cc2)cc1,inactive
10,Cc1cnc(NC(=O)C2COc3ccccc3O2)s1 (stereo unspecified),"inconclusive: 89.1 µM [inhibitor, single point]"
11,CC(CS(=O)(=O)c1ccc2c(c1)NC(=O)CS2)C(=O)NCc1ccccc1Cl (stereo unspecified),"inconclusive: 89.1 µM [inhibitor, single point]"
12,CCN1C=C(Cc2cccs2)C2=C(C1)C(c1cccs1)C(C#N)=C(N)O2 (stereo unspecified),"inconclusive: 79.4 µM [inhibitor, partial curve, poor fit]"
13,Cc1ccc(Nc2cc(C)c(C#N)c3nc4ccccc4n23)c(C)c1,"inconclusive: 89.1 µM [inhibitor, partial curve, poor fit]"
14,Cc1ccc(S(=O)(=O)n2cnc3cc([N+](=O)[O-])ccc32)c(C)c1,"inconclusive: 31.6 µM [inhibitor, single point]"
15,COc1cc(C2Nc3ccccc3-c3nnc(SCc4ccc(C)cc4)nc3O2)cc(OC)c1O (stereo unspecified),active: 79.4 µM
16,CC(=O)Nc1cccc(NC(=O)CSc2ccc(-c3sc(-c4ccccc4)nc3C)nn2)c1,"inconclusive: 89.1 µM [inhibitor, single point]"
17,O=C(CCC(=O)c1cccs1)OCC(=O)N1CCN(C(=O)c2ccco2)CC1,"inconclusive: 89.1 µM [inhibitor, single point]"
18,CC(=O)c1ccc(NC(=O)CC2Oc3ccc(C)cc3NC2=O)cc1 (stereo unspecified),"inconclusive: 89.1 µM [inhibitor, single point]"
19,O=C(O)c1c(Cl)c(Cl)c(Cl)c(Cl)c1-c1c2cc(I)c(=O)c(I)c-2oc2c(I)c(O)c(I)cc12,active: 13.4 µM and active: 11.9 µM
20,COc1cc(O)cc2cc3c(c(O)c12)C(=O)CC(C)(O)O3 (stereo unspecified),"inconclusive: 56.2 µM [inhibitor, partial curve, poor fit]"
21,Cc1nc(S/C(=C\c2ccc(-c3ccc(C(=O)O)c(Cl)c3)o2)C(=O)O)n[nH]1,active: 8.91 µM
22,Cc1ccc(C(=O)OCC(=O)c2ccc(CC(=O)N3CCOCC3)s2)cc1C,active: 79.4 µM

row,Compound,Potency
1,C#CCOCCOCCOCCNc1nc(N2CCN(C(=O)CCCCCCCCCCNC(=O)[C@H](CCCCN)n3cc(CCO)nn3)CC2)nc(N2CCN(C(=O)CCCCCCCCCCNC(=O)[C@H](CCCN=C(N)N)n3cc(C[C@@H](C)CC)nn3)CC2)n1,"inconclusive: 89.1 µM [inhibitor, single point]"
2,Cc1ccc(S/C=C\C(=O)c2ccccc2)cc1,inactive
3,Cc1cccc(NC(=O)CN2C(=O)CSc3ccc(S(=O)(=O)N4CCCC4)cc32)c1C,inactive
4,C/C(N)=C(/C#N)C(=O)CN1C(=O)NC(Cc2c[nH]c3ccccc23)C1=O (stereo unspecified),"inconclusive: 89.1 µM [inhibitor, single point]"
5,CNc1nc2c(N)ncnc2n1[C@@H]1O[C@@H]2COP(=O)(O)O[C@H]2[C@H]1O,inactive
6,Cc1cc(-c2sccc2Br)nc(-n2cccc2)n1,active: 79.4 µM
7,Cc1ccc(C(=O)N/C(=C/c2ccco2)C(=O)Nc2cccc(C(=O)O)c2)cc1,"inconclusive: 89.1 µM [inhibitor, single point]"
8,O=c1nc2c(O)cccn2c2c1c(=O)[nH]c1ccccc12,"inconclusive: 89.1 µM [inhibitor, single point]"
9,O=C(Nc1cccc(F)c1)c1ccc2c(c1)N(Cc1ccccc1)C(=O)c1ccccc1S2(=O)=O,inactive
10,CO/N=C(\C(=O)NC1C(=O)N2C(C(=O)OCOC(=O)C(C)(C)C)=C(/C=C\c3scnc3C)CSC12)c1csc(N)n1 (stereo unspecified),"inconclusive: 28.2 µM [inhibitor, single point]"
11,N[C@@H](C(=O)N[C@@H]1C(=O)N2C(C(=O)O)=C(Cl)CS[C@H]12)c1ccccc1,"inconclusive: 56.2 µM [inhibitor, partial curve, poor fit]"
12,C=C1c2cccc(O)c2C(=O)C2C(=O)[C@]3(O)C(=O)C(C(N)=O)C(=O)[C@@H](N(C)C)[C@@H]3[C@@H](O)[C@H]12 (stereo partly specified),"inconclusive: 1.58 µM [inhibitor, full curve, poor fit]"
13,Cc1ccc2c(c1)ncc[n+]2CC(=O)c1ccc(F)cc1,inactive
14,CC(=O)NN1C(=O)/C(=C\c2ccc(O)cc2)SC1=S,inactive
15,O=C1N/C(=N\N=C\c2ccco2)SC1Cc1ccccc1[N+](=O)[O-] (stereo unspecified),"inconclusive: 89.1 µM [inhibitor, single point]"
16,CN(C)c1ncc2nc(-c3cc(F)cc(F)c3)c(=O)n(C)c2n1,"inconclusive: 3.98 µM [inhibitor, partial curve, poor fit]"
17,CC(=O)Nc1ccc(C(=O)NNC(=O)CCc2ccccc2)cc1,inactive
18,O=C1CCCC(=O)C1C(=O)C1CCN(S(=O)(=O)c2ccccc2)CC1,"inconclusive: 89.1 µM [inhibitor, single point]"
19,O=C(CCN1C(=O)/C(=C\c2ccccc2)SC1=S)Nc1ccc(C(=O)O)cc1,"inconclusive: 100 µM [inhibitor, single point]"
20,O=C(O)CSc1nc2ccc(NC(=O)COc3ccc(Cl)cc3)cc2s1,"inconclusive: 100 µM [inhibitor, single point]"
21,O=C(CSc1ccc2nnc(-c3ccc(F)cc3)n2n1)NCc1ccco1,inactive
22,Cc1c(NC(=O)C(C)(C)Oc2ccc(Cl)cc2)cccc1-c1nc2ccccc2o1,inactive

row,Compound,Potency
1,O=C(O)C1=NN(c2cc(Cl)c(S(=O)(=O)O)cc2Cl)C(=O)C1,active: 79.4 µM
2,COc1cc2[nH]c(=S)nc(NC3CCCCCC3)c2cc1OC,inactive
3,COc1ccc(CNC(=O)CC(c2ccc(OC)cc2)N2Cc3ccccc3C2=O)cc1 (stereo unspecified),inactive
4,CN(CC(=O)Nc1ccc(F)cc1)C(=O)COC(=O)Cc1cccs1,inactive
5,CN(C)c1cccc(C(=O)N2CCCC(CCC(=O)NCc3ccccc3F)C2)c1 (stereo unspecified),inactive
6,Cc1cc(S(=O)(=O)NC(C)c2nnc3ccccn23)ccc1Br (stereo unspecified),inactive
7,O=C(CC(c1ccccc1)(c1ccccc1)c1ccccc1)N[C@@H](Cc1ccc(O)cc1)C(=O)O,"inconclusive: 89.1 µM [inhibitor, single point]"
8,OCC1O[C@H]([S-])[C@H](O)[C@@H](O)[C@@H]1O.[Au+] (stereo partly specified),active: 5.32 µM
9,Cc1ccc(C(OCC(O)CNCc2ccc(F)cc2)c2ccccc2)cc1 (stereo unspecified),"inconclusive: 89.1 µM [inhibitor, single point]"
10,CCc1ccc(C(=O)COC(=O)CNC(=O)c2ccc(N3C(=O)c4ccccc4C3=O)cc2)cc1,"inconclusive: 89.1 µM [inhibitor, partial curve, poor fit]"
11,O=C1NC(c2ccccc2Cl)=N/C1=C/c1ccco1,"inconclusive: 50.1 µM [inhibitor, partial curve, poor fit]"
12,O=C(O)c1cc(N(Cc2ccccc2O)Cc2ccccc2O)ccc1O,active: 44.7 µM
13,CCCc1ccc(OCc2ccc(C(=O)O)o2)c(OC)c1,"inconclusive: 89.1 µM [inhibitor, partial curve, poor fit]"
14,O=C(COC(=O)c1c2c(nc3ccccc13)/C(=C\c1ccco1)CC2)NC1CCCC1,active: 22.4 µM
15,Cc1ccccc1OCC(=O)NCC(c1ccc(Cl)cc1)N1CCCCC1 (stereo unspecified),inactive
16,CC(=O)N1CCc2cc(Br)cc(S(=O)(=O)N3CCC(C(=O)Nc4ccc(C(C)C)cc4)CC3)c21,"inconclusive: 89.1 µM [inhibitor, single point]"
17,CCCCC1=CC2=C(c3ccco3)C(=O)C(C)(OC(=O)c3ccc(OC)cc3)C(=O)C2=CN1Cc1ccco1 (stereo unspecified),active: 50.1 µM
18,COc1ccc(Br)cc1[C@@H]1Nc2ccc(C(=O)O)cc2[C@@H]2C=CC[C@@H]21,active: 35.5 µM
19,CC(C)CC1=NN2C(=N)/C(=C\c3coc4ccccc4c3=O)C(=O)N=C2S1,"inconclusive: 22.4 µM [inhibitor, single point]"
20,Cc1nnc(SCC(=O)NCc2ccco2)[nH]c1=O,"inconclusive: 89.1 µM [inhibitor, single point]"
21,O=C(CNc1cccc2ccccc12)N/N=C/c1ccc(C(=O)O)cc1,"inconclusive: 89.1 µM [inhibitor, single point]"
22,Nc1nc2[nH]cc(CCc3ccc(C(=O)N[C@@H](CCC(=O)O)C(=O)O)cc3)c2c(=O)[nH]1,"inconclusive: 79.4 µM [inhibitor, single point]"
